Reference: PubChem BioAssay AID445 (National Center for Advancing Translational Sciences (NCATS), 2006)
In all, about 110,000 compounds went through this assay and about 40 (0.04%) were called active. Inconclusive results, whose numbers are uncertain, are shown with a selection of clear calls. Calls follow the shape of the dose curve; as a rule, active = well fitted curve in the direction sought with a large enough effect in the signal ratio (not every such curve was filed as active); inconclusive = small, poorly fitted or top-dose-only effect, or a change in a side signal; inactive = flat fitted curve, though single readings scatter; the % refers to the signal ratio. Potencies beside an inconclusive call are fits to weak or partial responses and may not hold up.

Assay: IkB Signaling;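 as to IkBa stabilization activation: 0% = basal untreated cells and 100% = reference inhibitor full response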
Conditions: ABC-DLBCL IkBa-CBG/CBR dual luciferase ratio (green luciferase fused to IkBa over red control in OCI-Ly3 lymphoma cells), 4 h; IkBa stabilization activation: at 57.1 µM (top of the series), scaled: untreated 0%, proteasome inhibitor 100% unless noted
Method in brief: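 In this assay, an IκBα–CBG68 fusion accumulates when IKK-driven degradation is blocked; native CBR normalizes for cell number. OCI-Ly3 cells were treated 4 h with compound and doxycycline, then green and red light read after Chroma-Glo addition.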
Potency is read from the fitted curve at half-maximal effect.

| SMILES | IkBa stabilization activation | Potency |
| --- | --- | --- |
| Cc1cccc(NC(c2cccc(Cl)c2)c2ccc3cccnc3c2O)n1 (stereo not drawn) | inconclusive: 12.2% [signal inhibitor] |  |
| COc1cc(NC(=O)Nc2nnc(N3CCCCC3)s2)cc(OC)c1 | inconclusive: 15% [signal inhibitor] |  |
| Cc1ccc2c(CC(=O)Nc3ccc(S(=O)(=O)N4CCC(C)CC4)cc3)coc2c1 | inactive |  |
| CC1CCc2nc3ccc(S(=O)(=O)N4CCC(C(=O)NCc5ccccc5Cl)CC4)cc3c(C(=O)O)c2C1 (stereo not drawn) | inactive |  |
| Cc1nn(-c2ccccc2)c2c1N(CCCC(=O)NCc1ccc(OC(C)C)cc1)C(=O)CS2 | inactive |  |
| O=c1c2[nH]c3ccccc3c2nc(SCc2ccccc2F)n1-c1ccc(F)cc1 | inconclusive: -3.53% [signal inhibitor] |  |
| Cc1ccc(CNC(=O)c2ccc3oc(=O)n(Cc4ccccc4)c3c2)cc1 | inconclusive: 1.98% [signal inhibitor] |  |
| COc1cc(OC)cc(-c2cc3nc4c(c(N5CCN(c6ncccn6)CC5)n3n2)CCCC4)c1 | inactive |  |
| COc1ccc(Cl)cc1NC(=O)C1CCCN(S(=O)(=O)c2ccc3c(c2)CCCC(=O)N3)C1 (stereo not drawn) | inconclusive: 5.72% [signal inhibitor] |  |
| O=C(CSc1nc2c(c(=O)[nH]1)CN(Cc1ccc3c(c1)OCO3)CC2)Nc1cc(F)ccc1F | inconclusive: -1.9% [signal inhibitor] |  |
| c1ccc2[nH]c(CN3CCN(c4ncnc5c4oc4ccccc45)CC3)nc2c1 | inconclusive: -0.802% [signal inhibitor] |  |
| COc1ccc(-c2c3c(=O)n(C)c(=O)n(C)c3c3n2-c2ccccc2NC3c2ccccc2OC)cc1 (stereo not drawn) | inconclusive: -1.53% [signal inhibitor] |  |
| COc1ccc2sc(NC(=O)CC(C)C)nc2c1 |  | inconclusive: 15.8 µM [signal inhibitor, partial curve] |
| CCCCSCCCNC(=O)c1cn(CC)c2ccc(S(=O)(=O)N3CCOCC3)cc2c1=O | inconclusive: 1.01% [signal inhibitor] |  |
| COc1ccc(S(=O)(=O)N2CCC(C(=O)Nc3ccc(Oc4ccccc4)cc3)CC2)cc1OC |  | inconclusive: 10 µM [signal inhibitor] |
| COc1ccc(C(CNC(=O)COc2cc(C)c(Cl)c(C)c2)N2CCCCC2)cc1 (stereo not drawn) | inconclusive: 0.0786% [signal inhibitor] |  |
| COc1ccc(Cn2ccc3nc(C)c(C(=O)Nc4ccc(OC)c(OC)c4)cc3c2=O)cc1 | inactive |  |
| O=C(O)[C@H]1C[C@H](C(=O)O)N1 | inactive |  |
| O=C(Nc1nsc(-c2ccccc2)n1)c1ccncc1 | inconclusive: 9.86% [signal inhibitor] |  |
| O=C(CSc1nc(=O)n(Cc2ccncc2)c2c1CCC2)Nc1ccccc1 | inconclusive: 4.05% [signal inhibitor] |  |
| COc1ccc(OC)cc1 | inactive |  |
| COc1cccc(CNC(=O)CCc2c(C)c3cc4c(C)coc4cc3oc2=O)c1 | inconclusive: 0.447% [signal inhibitor] |  |

| SMILES | IkBa stabilization activation | Potency |
| --- | --- | --- |
| CCCN(CCC)C(=O)c1c[nH]c2ccc(S(=O)(=O)N(C)c3ccc(Cl)cc3)cc2c1=O | inconclusive: 10.9% [signal inhibitor] |  |
| CCOC(=O)c1c(NC(=O)Cc2cccs2)sc(C(=O)N2CCCCC2)c1C | inactive |  |
| CCCCOC(=O)c1ccc(NC(=O)C2(c3cccs3)CCOCC2)cc1 | inconclusive: 0.571% [signal inhibitor] |  |
| COc1ccc(NC(=O)CSc2nc(-c3ccccc3)cc(-c3cc(OC)c(OC)c(OC)c3)c2C#N)c(OC)c1 | inconclusive: 8.15% [signal inhibitor] |  |
| COc1ccccc1-c1cc(C(=O)Nc2c(C)nn(Cc3ccc(Cl)cc3)c2C)no1 | inconclusive: -10.1% [signal inhibitor] |  |
| O=C(NCc1ccco1)c1cc2ccc(O)cc2oc1=O |  | inconclusive: 31.6 µM [signal inhibitor, partial curve] |
| CCCCN(CCCNC(=O)c1cc(Nc2ccc(OC)cc2OC)nc2ccccc12)Cc1ccccc1 | inconclusive: 0.58% [signal inhibitor] |  |
| Cc1onc(-c2ccccc2Cl)c1-c1nc(-c2ccccn2)no1 | inactive |  |
| Cc1nc2ccccc2c2oc(C(=O)N3CCc4ccccc4C3)cc12 | inconclusive: -10.1% [signal inhibitor] |  |
| COc1ccccc1N1CCN(S(=O)(=O)CCNC(=O)c2cc(=O)c3ccccc3o2)CC1 | inconclusive: 1.99% [signal inhibitor] |  |
| COc1ccc(C(=O)c2cn(Cc3ccc(F)cc3)c3c(F)cc(F)cc3c2=O)cc1 | inconclusive: 0.21% [signal inhibitor] |  |
| O=C(C1COc2cc(S(=O)(=O)Nc3ccc(Cl)cc3)ccc2O1)N1CCCC1 (stereo not drawn) | inconclusive: 1.14% [signal inhibitor] |  |
| O=C(O)CNC(=O)[C@H]1NC(C(F)(F)F)(C(F)(F)F)OC1(C(F)(F)F)C(F)(F)F | inactive: -0.777% [at 11.4 µM, scaled: untreated 0%, proteasome inhibitor 100%] |  |
| COc1cccc(C2C(C#N)=C(N)OC3=C2C(=O)CC(c2ccco2)C3)c1OCc1ccc(F)cc1 (stereo not drawn) | inconclusive: 5.63% [signal inhibitor] |  |
| COc1ccccc1N1CCN(C(=O)CSc2nc(C)c(Cc3ccccc3)c(=O)[nH]2)CC1 | inconclusive: -0.387% [signal inhibitor] |  |
| Cc1ccc(Cn2c(C)c(CNCc3ccccc3F)c(C(=O)O)c2C)cc1 | inactive |  |
| CCc1ccccc1N(C)C(=O)c1cc2c(s1)-c1c(C)cccc1OC2 |  | inconclusive: 3.16 µM [signal inhibitor] |
| COc1ccc(CCNc2nc(-c3sc(N)nc3C)cs2)cc1OC | inconclusive: -1.98% [signal inhibitor] |  |
| COc1cc(C2C(C(=O)Nc3ccccc3)=C(C)Nc3nc(SCC(=O)c4ccc(C)cc4)nn32)ccc1O (stereo not drawn) | inconclusive: -2.22% [signal inhibitor] |  |
| O=C(CSc1nnnn1-c1ccc2c(c1)CCC2)Nc1ccc2c(c1)OCCO2 | inconclusive: 11.4% [signal inhibitor] |  |
| CC(C)NS(=O)(=O)c1ccc(OCC(=O)N2CCN(c3cccc(Cl)c3)CC2)cc1 | inconclusive: 7.92% [signal inhibitor] |  |
